Experimental data taken from the BET-seq Pho4 binding data (Le et al. 2018).
The list shows a part of the results. These are noisy estimates, calculated here from bound and input reads.

Target: T1, Pho4 (S. cerevisiae) (UniProt P07270)
T1 sequence: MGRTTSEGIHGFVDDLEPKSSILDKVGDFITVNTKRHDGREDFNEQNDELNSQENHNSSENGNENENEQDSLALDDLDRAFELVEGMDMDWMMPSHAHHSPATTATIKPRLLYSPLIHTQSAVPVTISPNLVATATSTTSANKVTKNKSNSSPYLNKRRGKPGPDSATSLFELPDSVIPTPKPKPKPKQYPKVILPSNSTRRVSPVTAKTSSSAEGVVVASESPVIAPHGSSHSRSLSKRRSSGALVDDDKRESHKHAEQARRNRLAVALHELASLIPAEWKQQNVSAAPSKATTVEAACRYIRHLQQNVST
Experiment: relative binding free energy (BET-seq); higher = weaker binding
Settings: reference: library average

Sequence | relative binding free energy [kcal/mol]
TGGCGCACGTGTACTG | 0
GCGTGCACGTGGGTTA | -0.23
GGAATCACGTGAGAGG | 0.34
AGCTGCACGTGGTTTA | -0.11
GTTAACACGTGATCGG | 0.14
GAAGACACGTGAGGGT | 0.26
TGGAGCACGTGGTAGG | -0.13
GCTTACACGTGGGGTG | 0.02
TCTGGCACGTGAGTGG | 0.1
GCTGACACGTGGTGTG | -0.15
AGTTCCACGTGGGAGA | 0.03
GAGGTCACGTGTAGAG | 0.21
TAGTACACGTGAGTGG | 0.18
ATGGCCACGTGGTGAA | -0.12
TGTTTCACGTGGATCA | 0.22
GAGAGCACGTGGGTTT | -0.03
TAAGACACGTGGAGAG | 0.11
AGTTGCACGTGATAAG | 0.19
TGTTACACGTGATTTA | 0.16
TATGTCACGTGTTGCG | 0.05
GTTTCCACGTGTGGGA | 0.14

Sequence | relative binding free energy [kcal/mol]
AGCGTCACGTGGATGT | 0.07
CGTTCCACGTGAGGGG | 0.25
TTTTGCACGTGGCCGG | -0.08
TTGTCCACGTGAAGTA | 0.23
TTCTACACGTGGAGTA | 0.21
CTGTGCACGTGGCAGG | -0.13
TATTCCACGTGTAGGG | 0.12
TTATGCACGTGGGTCT | 0
GGGTTCACGTGTGGTT | 0.39
ATATTCACGTGGTAGT | 0.24
TTCGTCACGTGGTATG | 0.1
GTGAGCACGTGACGGG | 0.17
TGTTGCACGTGTCCGG | 0
AATTTCACGTGCATTG | 0.15
GGATGCACGTGTTTTA | 0.09
TGTTTCACGTGAGACT | 0.33
ATTGGCACGTGGTAGA | -0.22
GGGGGCACGTGGCAAC | -0.05
GTCTTCACGTGAGTAG | 0.44
GTTATCACGTGGAAGA | 0.35
TTCTGCACGTGGCGAG | 0

Sequence | relative binding free energy [kcal/mol]
TTAATCACGTGGTATG | 0.1
TATGGCACGTGTTTTG | -0.11
TGGAACACGTGGGTGT | -0.11
GGAGGCACGTGGATAG | -0.09
ATGATCACGTGTGATT | 0.36
CTATGCACGTGGCGGT | -0.08
TGGTTCACGTGCCTTT | 0.12
GTATCCACGTGTGGAT | 0.11
TAGGACACGTGTGTAA | -0.02
TTTATCACGTGTTTAG | 0.21
TTACGCACGTGAAAGT | 0.19
CAGTGCACGTGGACGG | -0.01
TCAGGCACGTGGTGCT | -0.23
GTAATCACGTGTAGAT | 0.39
AGGGACACGTGGGTAA | -0.23
ACATGCACGTGGGGGC | -0.22
CTGGTCACGTGGATGC | 0.07
GTTTACACGTGTCATG | 0.26
TAAGTCACGTGTGTCG | 0.17
GACTTCACGTGGGGCG | 0.2
GAGGGCACGTGCTGAG | -0.13
